# Results published in PubChem BioAssay AID1508642 (National Center for Advancing Translational Sciences (NCATS), 2021).
# The campaign covered roughly 43,000 compounds. About 200 (0.47%) were called active. Roughly 12% stayed inconclusive and do not appear here. Calls follow the shape of the dose curve; as a rule, active = well fitted cell-killing curve with a large enough effect; inconclusive = small, poorly fitted or top-dose-only effect, or effect the other way; inactive = flat fitted curve, though single readings scatter. Some of the results follow.
# Assay: Cell viability qHTS assay in S16 Pmp22-F2sN cells; also: nearly all actives have a fitted effect of over 65% in size
# Conditions: S16 Pmp22-F2sN Schwann cells viability, CellTiter-Glo, 24 h; series mostly up to 57.5 µM; activity change, negative = cytotoxicity: at the top concentration
# Outline: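 Used to flag compounds lowering reporter output through toxicity, this quantitative HTS measures ATP-based CellTiter-Glo luminescence in S16 Pmp22-F2sN Schwann cells after 24 h compound exposure at 37C.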
# % is scaled to controls: 0 for no effect and ±100 for the full control effect.
row,Structure (SMILES),"activity change, negative = cytotoxicity"
1,CCOc1ccc(C(=O)Nc2cccc(-c3nc4cccnc4s3)c2C)cc1OCC,inactive: 1.13%
2,Cc1ccc2nc3c(cc(C#N)c(=O)n3-c3nnc(SCc4ccccc4Cl)s3)c(=O)n2c1,inactive: -29.7%
3,COc1ccc(/C=C/c2nc(C#N)c(N3CCC(C)CC3)o2)cc1OC,inactive: -8.44%
4,COc1ccc(Nc2ncc3c(n2)CCN(Cc2ccc(Br)s2)C3)c(OC)c1,inactive: -2.53%
5,CCN(c1ccccc1)c1nnc(NC(=O)Nc2ccc(C)cc2)s1,inactive: 6.82%
6,CSc1ccc(CCNC(=O)c2ccc(-n3c(C)cc4c3CCCC4)cc2)cc1,inactive: 23.4%
7,CC(=O)N1N=C(c2ccc(C)cc2)CC1c1cn(-c2ccccc2)nc1-c1cccs1 (stereo not drawn),inactive: 17.4%
8,CSc1ccc(CCNC(=O)c2ccc(CS(=O)Cc3ccc(Cl)cc3)o2)cc1 (stereo not drawn),inactive: -1.74%
9,Cc1ccc2nc(-c3ccc(Cl)c(NC(=O)c4ccc(Br)o4)c3)oc2c1,inactive: 12.7%
10,CSc1nc2c([nH]c3ccccc32)c(=O)n1-c1ccc(C)cc1,inactive: 13.7%
11,Cc1ccc(C)c(N2CCN(S(=O)(=O)c3cc(C(=O)Nc4cc(Cl)cc(Cl)c4)ccc3F)CC2)c1,inactive: 5.77%
12,Cc1ccc(Cl)cc1NC(=O)c1cc(S(=O)(=O)N2CCCCCC2)cn1C,inactive: 2.8%
13,CCc1ccc2c(c1)NC(c1cccnc1)=NC(c1ccc(C(C)(C)C)cc1)=N2,inactive: -24.2%
14,COc1cc(C2CC(=O)Nc3c2c(C)nn3-c2nncc(-c3ccccc3)n2)cc(OC)c1OC (stereo not drawn),inactive: 11.2%
15,CCN(c1ccccc1)S(=O)(=O)c1nnc(NC(=O)c2ccco2)s1,inactive: 0.743%
16,CCOc1ccc(NS(=O)(=O)c2ccc3nc(-c4ccccc4)[nH]c3c2)cc1,inactive: -28.6%
17,Cc1ccccc1-c1nnc(SCC(=O)N2CCCCC2)o1,inactive: -2.68%
18,COc1cc(OC)c(Nc2c3c(nc4nc(-c5cccs5)nn24)CCCC3)cc1Cl,inactive: -16.2%
19,COc1ccc(-c2nc3scc(CCNC(=O)Cc4ccc(F)cc4)n3n2)cc1,inactive: 3.88%
20,Cc1ccc(-n2ncc(C(=O)Nc3c(Cl)cccc3Cl)c2C2CCNCC2)cc1,inactive: 18.5%
21,Cc1csc2nc(COc3ccccc3NC(=O)c3ccccc3Cl)cc(=O)n12,inactive: 22.3%
22,COc1cc(CN(C(=O)COc2ccc(Cl)c(C)c2)c2ccccn2)cc(OC)c1OC,inactive: -2.68%
23,Cc1ccc(-c2nc(CS(=O)(=O)CC(=O)Nc3cc(C)ccc3C)c(C)o2)cc1,inactive: -15%
24,Cc1ccn2c(=O)c(C(=O)NCc3ccccc3Cl)c(O)nc2c1,inactive: -0.274%

row,Structure (SMILES),"activity change, negative = cytotoxicity"
1,CCc1ccccc1Nc1nn2c(=O)c3ccc(C(=O)NC4CCCCC4)cc3nc2s1,inactive: 4.17%
2,CC1(C(=O)Nc2ncc(Cc3ccc(Br)cc3)s2)Cc2ccccc2C(=O)O1 (stereo not drawn),inactive: -1.03%
3,Cc1ccc(N2CC(NC(=O)C3CCCCC3)CC2=O)cc1C (stereo not drawn),inactive: 0.449%
4,COC(=O)C(CCSC)NC(=O)c1cc2c(n(-c3ccc(OC)cc3)c1=O)CC(C)(C)CC2=O (stereo not drawn),inactive: 6.82%
5,COc1cccc(C(=O)Nc2ccc(NC(=O)c3ccc(C(C)(C)C)cc3)cc2)c1,inactive: -2.38%
6,CN1CCN(C(=O)Nc2cccc(Cl)c2)c2cccnc21,inactive: -5.43%
7,Cc1ccc(CNC(=O)C2CCCN(S(=O)(=O)c3ccc4c(ccn4C)c3)C2)cc1 (stereo not drawn),inactive: 1.79%
8,CCCCN(CCCC)CCNC(=O)c1cc(=O)[nH]c2ccc(S(=O)(=O)N3CCCCCC3)cc12,inactive: 1.24%
9,CC(C)c1ccc(NC(=O)CSc2nc(=O)n(Cc3cccnc3)c3c2CCC3)cc1,inactive: 1.27%
10,COc1ccc(CCNC(=O)Cn2cc(S(=O)(=O)Cc3cccc(Cl)c3)c3ccccc32)cc1OC,inactive: -22.3%
11,CCc1cnc2c(c1SCC(=O)Nc1cc(Cl)ccc1OC)c(=O)n(C)c(=O)n2C,inactive: -1.13%
12,Cc1ccc(Cl)cc1NC(=O)CSc1nc(C)c(C)c(C)c1C#N,inactive: 0.732%
13,CCOC(=O)c1cnc2c(C(F)(F)F)cccc2c1Nc1cccc(C(=O)OC)c1,inactive: -9.69%
14,Cc1cc(C)c(NC(=O)CSc2ncc(S(=O)(=O)c3ccc(C(C)(C)C)cc3)c(=O)[nH]2)c(C)c1,inactive: 3.39%
15,O=C(NC1CCCC1)c1ccc2c(c1)N(Cc1ccccc1Cl)C(=O)c1ccccc1S2,inactive: 2.96%
16,CCc1ccc(CNC(=O)C2CCN(C(=O)N3CC(CC)Oc4ccc(C)cc43)CC2)cc1 (stereo not drawn),inactive: -16.3%
17,COc1ccccc1CNC(=O)CN1C(=O)CCc2cc(S(=O)(=O)N3CCOCC3)ccc21,inactive: 19.1%
18,O=C(Nc1ccc2nc(SCC(=O)N3CCCC3)sc2c1)c1ccccc1F,inactive: -11.8%
19,CCc1ccc(NC(=O)CCCc2nc(-c3ccco3)no2)cc1,inactive: -3.83%
20,COc1cc2[nH]c(=O)n(CCCC(=O)NCc3ccccc3)c(=O)c2cc1OC,inactive: 2.26%
21,Cc1ccc(OCc2nc(-c3ccc(C(=O)NCCc4ccc(S(N)(=O)=O)cc4)cc3)oc2C)cc1,inactive: 1.26%
22,COC(=O)c1c(NC(=O)CCCOc2ccccc2C)sc2c1CCC(C)C2 (stereo not drawn),inactive: 3.38%
23,CCOc1ccc(NC(=O)CNS(=O)(=O)c2ccc(Br)s2)cc1,inactive: -7.79%
24,CCOC(=O)c1sc2ccccc2c1S(=O)(=O)N1CCN(c2ccccc2)CC1,inactive: 5.97%
